PubChem BioAssay AID360 (National Center for Advancing Translational Sciences (NCATS), 2006)
In all, about 48,000 compounds went through this assay and about 550 (1.1%) were called active. Not shown: some 4% with an inconclusive outcome. Rule as the data show it: active = potency below about 15 µM; inconclusive = mostly about 16 µM to 33 µM; inactive = weaker than that. The list shows a part of the results.

Biological target: Lysosomal acid glucosylceramidase (Homo sapiens) (UniProt P04062)
Assay: Glucocerebrosidase;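 also: the screen sought inhibitors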
Details: purified enzyme, resorufin glucoside fluorescence (screen aimed at inhibitors), 20 min
Method in brief: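 Compounds titrated against 0.2 nM normal enzyme, 30 uM resorufin beta-D-glucopyranoside substrate, citrate/phosphate buffer with taurocholate and tween-20, pH 5.9. Reaction ran 20 min at room temperature; fluorescence (Ex 548/Em 600) gave AC50.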
Potency is read from the fitted curve at half-maximal effect.

Sequence of UniProt P04062 (P04062 whole entry, looked up): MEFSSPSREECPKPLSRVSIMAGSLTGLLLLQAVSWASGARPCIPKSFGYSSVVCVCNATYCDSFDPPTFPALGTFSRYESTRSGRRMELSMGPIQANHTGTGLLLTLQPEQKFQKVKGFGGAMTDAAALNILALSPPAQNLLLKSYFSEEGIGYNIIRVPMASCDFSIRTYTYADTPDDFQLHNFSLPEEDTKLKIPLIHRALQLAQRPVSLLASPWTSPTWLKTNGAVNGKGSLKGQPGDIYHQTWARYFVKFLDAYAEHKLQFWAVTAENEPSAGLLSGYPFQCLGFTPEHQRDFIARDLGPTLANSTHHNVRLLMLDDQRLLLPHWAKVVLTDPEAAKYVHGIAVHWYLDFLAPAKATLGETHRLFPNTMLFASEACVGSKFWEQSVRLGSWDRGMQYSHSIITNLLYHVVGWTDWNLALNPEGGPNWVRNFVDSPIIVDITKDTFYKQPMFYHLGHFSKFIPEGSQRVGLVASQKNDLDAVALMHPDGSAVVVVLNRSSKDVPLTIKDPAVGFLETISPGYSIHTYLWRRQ

| Compound | Potency |
| --- | --- |
| COc1ccccc1C(=O)Nc1ncc2c(n1)CC(c1ccco1)CC2=O (centres undefined) | inactive: > 76.9 µM |
| CCN1CCN(CC(=O)Nc2cc(F)ccc2C)CC1 | inactive: > 76.9 µM |
| [O-][n+]1onc2c1CCc1nnccc1-2 | inactive: > 76.9 µM |
| COc1ccc(-c2nnc3n2-c2ccccc2SC3)cc1OC | inactive: > 76.9 µM |
| CSCC[C@H](NC(=O)NCc1ccc(F)cc1)C(=O)O | inactive: > 76.9 µM |
| COC(=O)c1ccc(CSc2nc3sc4c(c3c(=O)n2C)CCCC4)o1 | inactive: > 76.9 µM |
| c1cncc(-c2nc3cc(Cc4ccc5oc(-c6cccnc6)nc5c4)ccc3o2)c1 | inactive: > 76.9 µM |
| Oc1ccc2[nH]cnc2c1CN1CCCCC1 | inactive: > 76.9 µM |
| O=C(COC(=O)CNC(=O)C1CCCCC1)Nc1ccc(Cl)cn1 | inactive: > 76.9 µM |
| CCOC(=O)Cn1cc(C(=O)c2ccco2)c2ccccc21 | inactive: > 76.9 µM |
| O=C(CSc1nnc(NCc2ccccc2)s1)c1ccco1 | inactive: > 76.9 µM |
| O=C(COc1ccc(Cl)cc1Cl)Nc1ccc2nc3n(c(=O)c2c1)CCCC3 | inactive: > 76.9 µM |
| Cc1cc(-c2cccnc2)c(C#N)c(SCC#N)n1 | inactive: > 76.9 µM |
| Cc1noc(NS(=O)(=O)c2ccc(NC(=O)CS(=O)(=O)c3ccccc3)cc2)c1C | inactive: > 76.9 µM |
| CCCCCC(=O)Nc1ccc2oc(-c3cncc(Br)c3)nc2c1 | inactive: > 76.9 µM |
| CC1CCN(S(=O)(=O)c2cccc(C(N)=O)c2)CC1 | inactive: > 76.9 µM |
| Cc1cc2cc(CN3C(=O)c4ccccc4C3=O)ccc2[nH]1 | inactive: > 76.9 µM |
| COC(=O)C1=C(N)Oc2cc(C)n(Cc3cccnc3)c(=O)c2C1c1ccc(OC)c(OC)c1OC (centres undefined) | inactive: > 76.9 µM |
| CCN(CC)S(=O)(=O)c1ccc2c(c1)c(=O)c(C(=O)NCCOC)cn2C | inactive: > 76.9 µM |
| CCCn1c(SCC(=O)NC(=O)NCc2ccco2)n[nH]c1=O | inactive: > 76.9 µM |
| CN(Cc1ccc(OC(F)F)cc1)C(=O)c1ccc2nccnc2c1 | inactive: > 76.9 µM |
| Cc1ccc(C(=O)CSc2nc(C)cc(SCc3nnc(-c4ccccc4)o3)n2)cc1 | inactive: > 76.9 µM |
| CN(C)CCN1C(=O)c2oc3ccccc3c(=O)c2C1c1cccc(Br)c1 (centres undefined) | inactive: > 76.9 µM |

| Compound | Potency |
| --- | --- |
| CCc1ccc(CNc2ccc(O)cc2)cc1 | active: 11 µM |
| COc1ccc2nc(NC(=O)c3ccoc3C)sc2c1 | inactive: > 76.9 µM |
| COCC(=O)Nc1ccc(S(=O)(=O)NCCc2ccccc2)cc1 | inactive: > 76.9 µM |
| N#Cc1nc(COc2cccc(Cl)c2)oc1N1CCN(c2ccccc2)CC1 | inactive: > 76.9 µM |
| CC(C)(CNS(=O)(=O)c1ccc(F)cc1)CNS(=O)(=O)c1ccc(F)cc1 | inactive: > 76.9 µM |
| COC(=O)C(NC(=O)C(C)Oc1ccccc1)C(C)C (centres undefined) | inactive: > 76.9 µM |
| O=C(C1CC(=O)N(c2ccccc2)C1)N1CCN(C2=NS(=O)(=O)c3ccccc32)CC1 (centres undefined) | inactive: > 76.9 µM |
| Cc1ccc2cc(CN(CCO)Cc3nnnn3Cc3ccc(F)cc3)c(=O)[nH]c2c1 | inactive: > 76.9 µM |
| O=c1[nH]c2cc3c(cc2cc1C(c1nnnn1CC1CCCO1)N1CCCCCC1)OCO3 (centres undefined) | inactive: > 76.9 µM |
| O=C(OCC(=O)N1CCN(C(=O)c2ccco2)CC1)c1cn(-c2ccccc2)nc1-c1ccccc1 | inactive: > 76.9 µM |
| CCN(CC)c1ccc(C2C(C(=O)OCCOC)=C(C)NC3=C2C(=O)CC(C)(C)C3)cc1 (centres undefined) | inactive: > 76.9 µM |
| CCOC(=O)C1CCN(S(=O)(=O)C(F)(F)c2nc3ccccc3s2)CC1 | inactive: > 76.9 µM |
| CC1(C)Cc2c(sc3ncnc(N)c23)CO1 | inactive: > 76.9 µM |
| CCN(CCCNC(=O)COc1cc(=O)n(C)c2ccccc12)c1cccc(C)c1 | inactive: > 76.9 µM |
| COC(=O)c1c(C)[nH]c(C(=O)CN2CCOCC2)c1C | inactive: > 76.9 µM |
| O=C(Nc1ccccc1)OC1C2CCC1C(N1CCCCC1)CC2 (centres undefined) | inactive: > 76.9 µM |
| O=C(O)CCCC(=O)Nc1nc(-c2ccccc2)cs1 | inactive: > 76.9 µM |
| COc1ccc(-c2noc(CSc3nnc(Cc4ccccc4)n3-c3cccc(C)c3)n2)cc1OC | inactive: > 76.9 µM |
| COc1cc2nc(N3CCN(C(=O)C4CCCO4)CC3)nc(N)c2cc1OC (centres undefined) | inactive: > 76.9 µM |
| Cc1ccccc1OCc1nc(-c2ccc(NC(=O)c3ccco3)cc2)no1 | inactive: > 76.9 µM |
| CC(C)OP(=O)(c1ccc(N(C)C)cc1)C(O)c1c(Cl)cccc1Cl (centres undefined) | inactive: > 76.9 µM |
| Cc1cc(C(=O)Nn2cnnc2)cs1 | inactive: > 76.9 µM |
| Cc1cnc(-c2nnc(N(C)C(=O)C3CCOC3)s2)cn1 (centres undefined) | inactive: > 76.9 µM |

| Compound | Potency |
| --- | --- |
| Cc1cc(C(=O)CN2C(=O)CCC2=O)c(C)n1Cc1ccccc1 | inactive: > 76.9 µM |
| Cc1csc(NC(=O)CCNS(=O)(=O)c2ccc3c(c2)c(=O)n(C)c(=O)n3C)n1 | inactive: > 76.9 µM |
| CC(=O)N1CCc2cc(S(=O)(=O)NCCC(=O)Nc3cc(C)cc(C)c3)ccc21 | inactive: > 76.9 µM |
| O=C(c1ccc(S(=O)(=O)NCC2CCCO2)cc1)N1CCc2ccccc21 (centres undefined) | inactive: > 76.9 µM |
| CCCN1CCN(C(c2cc3cc(OCC)ccc3[nH]c2=O)c2nnnn2C2CCCCC2)CC1 (centres undefined) | inactive: > 76.9 µM |
| COc1ccc(C2c3c(oc4ccccc4c3=O)C(=O)N2Cc2ccncc2)cc1OC (centres undefined) | inactive: > 76.9 µM |
| Cc1ccc(C2CC(C(F)F)n3ncc(C(=O)Nc4cnn(Cc5ccccc5C)c4)c3N2)cc1 (centres undefined) | inactive: > 76.9 µM |
| C=C(C)CSc1nc(N)c(C#N)c(-c2ccc(C)cc2)c1C#N | inactive: > 76.9 µM |
| C=CCC(=O)OCC(=O)Nc1ccc(Oc2ccccc2)cc1 | inactive: > 76.9 µM |
| CC1CCC2(CC1)NC(=O)c1ccccc1O2 (centres undefined) | inactive: > 76.9 µM |
| CC(=O)C1=C(O)C(=O)N(Cc2cccnc2)C1c1ccc(Cl)cc1Cl (centres undefined) | inactive: > 76.9 µM |
| CC(Sc1nc(NCc2ccccc2)nc(N2CCOCC2)n1)C(=O)Nc1ccccc1 (centres undefined) | inactive: > 76.9 µM |
| COc1ccc(-c2c3c(=O)n(C)c(=O)n(C)c3cn2Cc2cccnc2)cc1 | inactive: > 76.9 µM |
| C/C=C/c1ccc(OCCCCN2C(=O)NC(C)(C)C2=O)c(OC)c1 | inactive: > 76.9 µM |
| Cc1nc2nc(-c3ccccc3)nn2c(C)c1Cl | inactive: > 76.9 µM |
| COc1ccc(C2C3=C(CCCC3=O)Nc3nc(SCc4ccccc4)nn32)cc1OC (centres undefined) | inactive: > 76.9 µM |
| CC1Cc2ccccc2N1C(=O)COc1nc2ccccc2nc1N1CCOCC1 (centres undefined) | inactive: > 76.9 µM |
| O=C(COc1ccccc1O)Nc1ccccc1Cl | inactive: > 76.9 µM |
| O=C(CNC(=O)c1ccco1)NCCCc1ccccc1 | inactive: > 76.9 µM |
| COc1ccc(C(=O)NCCc2nnc(SCc3nc4ccccc4c(=O)[nH]3)n2C)cc1 | inactive: > 76.9 µM |
| COc1ccc(CC(=O)NCc2nnc(SCC(=O)N3CCN(c4ccccc4)CC3)n2C)cc1 | inactive: > 76.9 µM |
| O=C(NCC1CCCO1)C1CCN(CC2CCCCC2)CC1 (centres undefined) | inactive: > 76.9 µM |
| CCc1ccc(Nc2cc(=O)n(C3CCCCC3)c(=O)[nH]2)cc1 | inactive: > 76.9 µM |

| Compound | Potency |
| --- | --- |
| O=C(COc1ccc(Cl)cc1)Nc1ccc2oc(-c3ccncc3)nc2c1 | inactive: > 76.9 µM |
| COc1ccc(N(C)S(=O)(=O)c2ccc3c(c2)oc(=O)n3C)cc1 | inactive: > 76.9 µM |
| CCOC(=O)CSc1nc2cc(C(=O)NCC3CCCO3)ccc2c(=O)n1Cc1ccco1 (centres undefined) | inactive: > 76.9 µM |
| COC(=O)C(NC(=O)c1ccco1)(Nc1nc(C2CC2)cs1)C(F)(F)F (centres undefined) | inactive: > 76.9 µM |
| Cc1ccc(-c2nn(-c3ccccc3)cc2/C=C(\C#N)c2cccc(C#N)c2)o1 | inactive: > 76.9 µM |
| O=C(OCC(=O)N1CCc2ccccc21)c1ccccc1 | inactive: > 76.9 µM |
| O=c1[nH]n(-c2cccc3cccnc23)c(=O)c2ccccc12 | inactive: > 76.9 µM |
| O=C(Cn1nnc2ccccc2c1=O)Nc1ccc2c(c1)CCC2 | inactive: > 76.9 µM |
| COc1nc(Nc2cccc(C)c2)nc(N2CCCCC2)n1 | inactive: > 76.9 µM |
| COC(=O)c1cc2nc(-c3ccccc3)cc(C)n2n1 | inactive: > 76.9 µM |
| CC1(C)CC(C(CC(=O)O)c2ccccc2)CCO1 (centres undefined) | inactive: > 76.9 µM |
| Cc1cc(-c2ccccc2)nc(SCc2ccc(C(=O)O)o2)n1 | inactive: > 76.9 µM |
| COc1ccc2nc(Nc3nc(C)c(CCC(C)C)c(=O)[nH]3)nc(C)c2c1 | inactive: > 76.9 µM |
| O=C(O)C1C2C=CC(C2)C1C(=O)NCc1ccccn1 (centres undefined) | inactive: > 76.9 µM |
| Cc1cc(C(F)F)n2nc(C(=O)Nc3ccccc3F)nc2n1 | inactive: > 76.9 µM |
| COc1ccccc1CNS(=O)(=O)c1ccc(NC(C)=O)cc1 | inactive: > 76.9 µM |
| Cc1nn(-c2ccccc2)c2sc(-c3n[nH]c(=S)o3)cc12 | inactive: > 15.4 µM |
| COc1ccc(S(=O)(=O)N2CCN(c3ccccc3OC)CC2)cc1OC | inactive: > 76.9 µM |
| CCOC(=O)c1c(-c2ccccc2)csc1NC(=O)c1nn(CC)cc1Br | inactive: > 76.9 µM |
| CCC(C)N(C(=O)COC(=O)c1[nH]c(C)c(C(C)=O)c1C)C1CCS(=O)(=O)C1 (centres undefined) | inactive: > 76.9 µM |
